The other results are listed elsewhere or left out. Single values are uncertain, as repeats are few or missing.
tested on: SkMel5; assay: cell count relative to DMSO control; melanoma cells; higher = more viable cells; settings: library dose: standard library concentration; 72 h
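Note: cells treated in 1,536-well plates, then fixed and DAPI-stained, with nuclei counted from automated high-throughput microscope images.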

**Q.** `C[C@]1(O)C[C@@H](c2nc(-c3ccc4ccc(-c5ccccc5)nc4c3)c3c(N)nccn32)C1` + COC(=O)c1sccc1S(=O)(=O)Nc1ccc(Nc2ccccc2)cc1OC [GSK0660] (first compound 2 µM, partner dose 5 µM) was tested. Which cell count did it give?
**A.** 98.3%

**Q.** `COc1cc([C@@H]2c3cc4c(cc3[C@@H](O[C@@H]3O[C@@H]5CO[C@@H](C)O[C@H]5[C@H](O)[C@H]3O)[C@H]3COC(=O)[C@H]23)OCO4)cc(OC)c1O` [etoposide] + c1cc(-c2cnn3cc(-c4ccc(OCCN5CCCCC5)cc4)cnc23)ccn1 [Dorsomorphin] (first compound 0.1 µM, partner dose 2 µM) was tested. Which cell count did it give?
**A.** 43.6%

**Q.** For `C[C@]1(O)C[C@@H](c2nc(-c3ccc4ccc(-c5ccccc5)nc4c3)c3c(N)nccn32)C1` + CCN(CC)CCCCNc1ncc2cc(-c3cc(OC)cc(OC)c3)c(NC(=O)NC(C)(C)C)nc2n1 [PD173074] (first compound 2 µM, partner dose 0.5 µM), which cell count is on record?
**A.** 83.9%

**Q.** Which cell count does the source give for `COc1cc([C@@H]2c3cc4c(cc3[C@@H](O[C@@H]3O[C@@H]5CO[C@@H](C)O[C@H]5[C@H](O)[C@H]3O)[C@H]3COC(=O)[C@H]23)OCO4)cc(OC)c1O` [etoposide] + CCN(CC)CCCCNc1ncc2cc(-c3cc(OC)cc(OC)c3)c(NC(=O)NC(C)(C)C)nc2n1 [PD173074] (first compound 0.1 µM, partner dose 0.5 µM) here?
**A.** 67.5%

**Q.** Which cell count does the source give for `COc1cc([C@@H]2c3cc4c(cc3[C@@H](O[C@@H]3O[C@@H]5CO[C@@H](C)O[C@H]5[C@H](O)[C@H]3O)[C@H]3COC(=O)[C@H]23)OCO4)cc(OC)c1O` [etoposide] + O=C(Nc1ccccc1)c1cc([N+](=O)[O-])ccc1Cl [GW9662] (first compound 0.1 µM, partner dose 10 µM) here?
**A.** 77.5%
